# Data: PMC4336329 (PLoS ONE, 2015)
# Out of some 310,000 compounds screened, about 14,000 (4.5%) showed an effect of 50% or more. Effects have a minus sign here. Some of the results follow. Where a SMILES comes first, the peptide text is derived from it. [ ]: non-standard residue; d: D form. The star is where a group is joined. Phg = N[CH](C(=O)O)c1ccccc1; Cbz = O=C(OCc1ccccc1)*
# Target: human ether-à-go-go-related gene (hERG) potassium channel (human, UniProt Q12809)
# Experiment: primary screen, population patch clamp on CHO cells stably expressing hERG
# 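Further: peak tail current of the secondary pulse compared with the same well before compound.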
# Sequence of human ether-à-go-go-related gene (hERG) potassium channel (Q12809 whole entry, looked up): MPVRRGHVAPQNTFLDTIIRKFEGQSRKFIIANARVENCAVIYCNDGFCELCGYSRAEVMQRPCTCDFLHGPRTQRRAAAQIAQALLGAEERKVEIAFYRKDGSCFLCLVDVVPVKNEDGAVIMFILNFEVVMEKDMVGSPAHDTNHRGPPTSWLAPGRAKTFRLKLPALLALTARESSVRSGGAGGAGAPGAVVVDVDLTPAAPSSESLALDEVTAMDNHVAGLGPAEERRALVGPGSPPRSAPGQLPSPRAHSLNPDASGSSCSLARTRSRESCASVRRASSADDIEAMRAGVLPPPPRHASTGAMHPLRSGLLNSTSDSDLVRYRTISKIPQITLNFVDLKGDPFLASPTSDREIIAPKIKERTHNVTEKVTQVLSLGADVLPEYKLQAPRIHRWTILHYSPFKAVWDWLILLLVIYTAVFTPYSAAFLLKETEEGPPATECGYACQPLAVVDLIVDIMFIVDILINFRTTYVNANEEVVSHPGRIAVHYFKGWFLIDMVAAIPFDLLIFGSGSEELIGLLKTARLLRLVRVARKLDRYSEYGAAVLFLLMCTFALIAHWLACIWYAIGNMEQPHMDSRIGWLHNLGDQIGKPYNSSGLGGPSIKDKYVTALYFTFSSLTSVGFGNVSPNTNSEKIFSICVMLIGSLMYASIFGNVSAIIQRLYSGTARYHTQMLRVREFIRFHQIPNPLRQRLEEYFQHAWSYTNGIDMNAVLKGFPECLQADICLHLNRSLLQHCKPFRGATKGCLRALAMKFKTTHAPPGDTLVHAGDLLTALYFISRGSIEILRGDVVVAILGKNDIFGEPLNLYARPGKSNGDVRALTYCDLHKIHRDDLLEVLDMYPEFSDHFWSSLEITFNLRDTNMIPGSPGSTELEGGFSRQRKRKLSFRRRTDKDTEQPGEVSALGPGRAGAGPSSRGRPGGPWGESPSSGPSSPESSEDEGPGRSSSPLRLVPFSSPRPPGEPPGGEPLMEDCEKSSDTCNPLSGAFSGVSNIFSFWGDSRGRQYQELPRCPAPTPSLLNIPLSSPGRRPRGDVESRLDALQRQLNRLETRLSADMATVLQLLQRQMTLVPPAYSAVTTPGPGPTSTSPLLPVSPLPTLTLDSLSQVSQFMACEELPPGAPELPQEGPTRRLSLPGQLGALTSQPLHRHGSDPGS
row,SMILES,"hERG current change (%, negative = inhibition) at 10uM [%]"
1,CCOc1ccccc1NC(=S)Nn1cnnc1,15.2
2,CCOC(=O)COn1c(=O)c(-c2ccc(F)cc2)[n+]([O-])c2ccccc21,5.49
3,COc1ccc(CNC(=O)NCCc2c[nH]c3ccccc23)cc1,-2.66
4,COc1ccc(/C=N/NC(=O)c2cc(-c3ccccc3)nc3ccccc23)c(C(=O)O)c1OC,14.6
5,O=C(Cc1ccccc1)N1CCN=C1SCc1cccc([N+](=O)[O-])c1,-22.6
6,Cc1c(C(=O)OCc2ccccc2)nnn1-c1nonc1N,-2.14
7,Nc1ccc(Oc2ncccn2)cc1,13.5
8,O=C(CCCN1C(=O)S/C(=C\C=C\c2ccccc2)C1=O)Nc1ccc(O)cc1,-2.47
9,Cc1nc(SCC(=O)NC(=O)NC2CCCCC2)nc(C)c1C,10
10,COCCNC(=S)NN=C1CCCCC1,0.671
11,COc1ccc(CNC(=O)CN2C(=O)COc3ccc(S(=O)(=O)N4CCC(C)CC4)cc32)cc1,-9.64
12,Nc1ccccc1SSc1ccccc1N,27.7
13,COC(=O)C(Cc1ccc(O)cc1)NC(=O)C(C)NC(=O)c1ccc(C(C)(C)C)cc1 (centres unmarked),-12.8
14,O=C(O)C(NC(=O)C1CCCN1C(=O)OCc1ccccc1)c1ccccc1 (stereo not drawn) (Cbz-Pro-[Phg]-OH; configuration not given here),17.4
15,O=C1C(=O)N(CNc2cccnc2)c2ccccc21,6.87
16,O=C(COC(=O)c1cncc(Br)c1)Nc1ccc2c(c1)OCO2,-0.617
17,O=C(c1ccco1)N1CCN(C(=O)C2CC(=O)N(c3ccc(Cl)cc3)C2)CC1 (centres unmarked),-75.4
18,O=C(Nc1cccnc1)c1ccccc1-c1nc(-c2ccccc2F)no1,-16.4
19,CC(C)C[C@H]1COCCS(=O)(=O)N1Cc1cccc(F)c1,4.49
20,O=C(CSCCO)Nc1cccc2ccccc12,13.7
21,Cc1c(C(=O)Nc2ccc3c(c2)CCC3)cccc1[N+](=O)[O-],-13
22,CN(CCC#N)C(=O)COc1ccc(Br)cc1Cl,13.8

row,SMILES,"hERG current change (%, negative = inhibition) at 10uM [%]"
1,COc1ccc(Br)cc1C(=O)Nc1cccc(NC(=O)c2ccco2)c1,-8.11
2,Cc1nc2c(c(C)nn2-c2ccccc2)c(C)c1CCC(=O)NCCCOC(C)C,-34.7
3,CC(C)(C)C1CCC(OC(=O)C[N+]2(C)CCCC2)CC1.[I-] (centres unmarked),27.1
4,Nc1c(C(=O)NC2CCCC2)c2nc3ccccc3nc2n1CC1CCCO1 (centres unmarked),-4.67
5,COc1ccc(NC(=O)c2cn(CCC#N)nc2-c2cc3ccccc3o2)cc1,-0.308
6,CCCc1cc(=O)oc2cc(OCc3ccc(OC)cc3)c(Cl)cc12,17.2
7,Cc1nn(Cc2ccc(C(=O)Nc3nc4c(C)cccc4s3)o2)c(C)c1Br,12.5
8,CCOC(=O)c1sc(NC(=O)Nc2ccc(F)cc2)nc1C,7.39
9,Cc1cc(C)cc(NC(=O)NCC(O)COc2ccc([N+](=O)[O-])cc2)c1 (centres unmarked),-42.3
10,COc1ccc(C(=O)NNC(=O)Nc2ccc(C)cc2)cc1,-14
11,CC1CCN(S(=O)(=O)c2ccc(NC(=O)[C@@H]3CCCC[C@@H]3C(=O)O)cc2)CC1,9.64
12,COC(=O)c1ccc(CN2CCN(CCCc3ccccc3)C(CCO)C2)cc1 (centres unmarked),-64.1
13,CC(C)(C)NC(=O)N1CCC(CO)(Cc2ccccc2Cl)CC1,-4.82
14,C/C(=N\NC1=NCCN1)c1ccccc1,1.62
15,Cc1c(CNCc2cccs2)c(C(=O)O)c(C)n1Cc1ccccc1,-31.3
16,O=C(CCCC(=O)Nc1ccccc1Br)N/N=C/c1c(F)cccc1Cl,-7.39
17,CCC(=O)N(C)CCc1cc2c(c(OC)c1/C=N/NC(=O)c1ccccc1O)OCO2,-6.4
18,Cc1ccc(NC(=O)COC(=O)C(NS(=O)(=O)c2ccc(Cl)cc2)C(C)O)c(Br)c1 (centres unmarked),-20.1
19,COc1ccccc1N1CCN(C2CC(=O)N(c3cccc(Br)c3)C2=O)CC1 (centres unmarked),-53.7
20,COc1cccc(NC(=O)CN(C)C(=O)c2c(C)nn(-c3ccccc3)c2Cl)c1,1.94
21,C=CCn1c(SCCOC)nc2c1c(=O)[nH]c(=O)n2C,2.01
22,CC1CCCCC12NC(=O)N(CC(=O)N1CCN(C(=O)c3ccco3)CC1)C2=O (centres unmarked),-4.27

row,SMILES,"hERG current change (%, negative = inhibition) at 10uM [%]"
1,CCC(C)[C@H](NC(=O)Nc1ccc(S(N)(=O)=O)cc1)C(=O)O (some centres unmarked),4.65
2,CCN(CC)C(=O)c1sc2[nH]c(=S)n(-c3ccccc3)c(=O)c2c1C,15.8
3,NC(=O)C1CCN(c2nc(-c3ccc4ccccc4c3)cs2)CC1,8.35
4,O=C(CN1C(=O)C2C3C=CC(C3)C2C1=O)N1CC(=O)N(CCc2ccccc2)C(=O)C1 (centres unmarked),10.2
5,OCCC1CN(CCCc2ccccc2)CCN1CCc1ccccc1 (centres unmarked),-77.2
6,CC(C)CN(C(=O)CSc1nncn1-c1ccccc1)c1c(N)n(CC(C)C)c(=O)[nH]c1=O,6.75
7,Cc1nn(-c2ccccc2)c(Cl)c1/C=C1\SC(=S)NC1=O,17.6
8,Cc1cccc2cc(C#N)c(SCC(=O)N3CCC(C)CC3)nc12,-6.48
9,O=C(NC(=S)N1CCN(c2ccc(Cl)cc2[N+](=O)[O-])CC1)c1ccco1,-68.4
10,O=C(COC(=O)C1CCN(C(=O)Nc2ccccc2)CC1)NCC(F)(F)F,17.7
11,O=c1cc(-c2ccc(O)c(-c3c(O)cc(O)c4c(=O)cc(-c5ccc(O)cc5)oc34)c2)oc2cc(O)cc(O)c12,-7.09
12,CCOc1ccccc1N1CCN(Cc2ccco2)CC1,-14.9
13,Cc1ccc(C2=NN3C(C(=O)c4ccccc4)Oc4ccccc4C3C2)cc1 (centres unmarked),0.487
14,COC(=O)C[C@H]1c2cc(C(F)(F)F)ccc2S(=O)(=O)N1Cc1ccccc1,-37
15,Cc1ccc(-c2sc(C(=O)NN)c(C)c2C#N)cc1,7.27
16,CS(=O)(=O)NCCOc1ccc(S(=O)(=O)NCCOc2ccccc2)cc1,12.3
17,O=C(CCc1ccccc1)N1CCN(Cc2ccc(F)cc2Cl)CC1,-24.2
18,CCCCCCN1C2=NCCN2c2ccccc21.Cl,-74
19,Cc1ccsc1-c1nc(CSCC(=O)NCCN2CCCC2)c(C)o1,-32
20,Cc1ccc(N(CC(=O)Nc2ccc(Br)c(C)c2)S(=O)(=O)c2c(C)[nH]c(=O)[nH]c2=O)cc1,17.6
21,CC1(C)CC2CC(C)(CN2C(=O)COC(=O)c2ccc(Cl)c(N)c2)C1 (centres unmarked),3.32
22,CCOc1ccc(S(=O)(=O)N2CCCCC2)cc1NC(=O)C1=COCCO1,-13.7

row,SMILES,"hERG current change (%, negative = inhibition) at 10uM [%]"
1,O=C(N[C@@H](Cc1ccc(O)cc1)C(=O)O)c1ccncc1,17.2
2,COc1ccc(CCN2C(=O)CC(C(C)c3ccccc3)C2=O)cc1OC (centres unmarked),-7.82
3,O=C(O)c1ccccc1-c1ccccc1C(=O)NCc1ccco1,13.4
4,O=C(Nc1ccc(N2CCOCC2)cc1N1CCOCC1)c1cccc([N+](=O)[O-])c1,-5.64
5,Cn1cnc(Sc2ncnc3nc[nH]c23)c1[N+](=O)[O-],17.5
6,COc1ccc(CC(=O)O/N=C(\N)Cc2cccc3ccccc23)cc1OC,8.17
7,O=C(NCCc1csc(-c2cccnc2)n1)c1ccccc1,12.4
8,CN(C)C(CNC(=O)CSc1nc2sc3c(c2c(=O)n1C)CCCC3)c1ccccc1 (centres unmarked),-16.6
9,Cn1nc(N)c2c(-c3ccc(Cl)cc3)c(C#N)c(N)nc21,-12.3
10,CC(C)(C)c1cc(C(=O)N/N=C/c2ccccc2O)n(-c2ccccc2)n1,-3.06
11,CCCOC(=O)C[N+](C)(C)CCOC1CC2CCC1(C)C2(C)C.[Br-] (centres unmarked),13
12,C/C=C\C=C/C(=O)Nc1cccc(C2=NOC3(C2)C[C@H](C(N)=O)N(C(=O)Cc2ccc([N+](=O)[O-])cc2)C3)c1 (some centres unmarked),-1.31
13,Cc1cccc(CSCCNC(=O)CN2C(=O)c3ccccc3S2(=O)=O)c1,16.2
14,CCCc1nc2nc(C)c(NS(=O)(=O)c3ccc(CC(C)C)cc3)c(=O)n2[nH]1,7.02
15,CCCN(C(=O)c1c(-c2ccccc2)noc1C)c1c(N)n(Cc2ccccc2)c(=O)[nH]c1=O,1.43
16,CCOC(=O)C1CCN(C(=S)Nc2ccc(S(N)(=O)=O)cc2)CC1,-3.4
17,Cc1cc(-c2ccccc2)n(-c2ccc(C(=O)N3CCN(c4ncccn4)CC3)cc2)n1,-56.4
18,CCOC(=O)C1(Cc2cccc(F)c2)CCN(C(=O)c2ccoc2C)CC1,2.63
19,O=C(Nc1nnc(SCc2c(Cl)cccc2Cl)s1)C1CC(=O)N(c2ccc3c(c2)OCCO3)C1 (centres unmarked),11.3
20,O=C(c1ccco1)N1CCN(C(=O)c2nn3cccnc3c2Cl)CC1,18.4
